Values joined by “and” are separate entries in the source; they are usually repeats but may differ in a detail not shown here. Identical values can stand only once.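 In this assay, cells in 96-well plates receive the compound at five concentrations for 48 hours. Endpoints are linearly interpolated between the surrounding concentrations. Abbreviation: GI50, concentration required for 50% inhibition of growth. Definition used: TGI = concentration required for complete inhibition of growth.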 Active and inactive are the calls of the source.
Columns and labels:
Test in all cases: NCI tumour cell line growth inhibition, 48 h
A498 renal = tested on: A498 renal
A549 NSCLC = tested on: A549 NSCLC
CAKI-1 renal = tested on: CAKI-1 renal
CCRF-CEM leukemia = tested on: CCRF-CEM leukemia
COLO 205 colon = tested on: COLO 205 colon
DLD-1 colon = tested on: DLD-1 colon
DMS 114 small cell lung = tested on: DMS 114 small cell lung
DMS 273 small cell lung = tested on: DMS 273 small cell lung
EKVX NSCLC = tested on: EKVX NSCLC
HCC-2998 colon = tested on: HCC-2998 colon
HCT-116 colon = tested on: HCT-116 colon
HCT-15 colon = tested on: HCT-15 colon
HL-60(TB) leukemia = tested on: HL-60(TB) leukemia
HOP-62 NSCLC = tested on: HOP-62 NSCLC
HOP-92 NSCLC = tested on: HOP-92 NSCLC
HT29 colon = tested on: HT29 colon
IGROV1 ovarian = tested on: IGROV1 ovarian
K-562 leukemia = tested on: K-562 leukemia
KM12 colon = tested on: KM12 colon
LOX IMVI melanoma = tested on: LOX IMVI melanoma
M19-MEL melanoma = tested on: M19-MEL melanoma
MALME-3M melanoma = tested on: MALME-3M melanoma
MCF7 breast = tested on: MCF7 breast
MOLT-4 leukemia = tested on: MOLT-4 leukemia
NCI-H226 lung = tested on: NCI-H226 lung
NCI-H23 lung = tested on: NCI-H23 lung
NCI-H460 lung = tested on: NCI-H460 lung
NCI-H522 lung = tested on: NCI-H522 lung
NCI/ADR-RES ovarian = tested on: NCI/ADR-RES ovarian
OVCAR-3 ovarian = tested on: OVCAR-3 ovarian
OVCAR-5 ovarian = tested on: OVCAR-5 ovarian
OVCAR-8 ovarian = tested on: OVCAR-8 ovarian
P388 leukemia = tested on: P388 leukemia
P388/ADR leukemia = tested on: P388/ADR leukemia
RPMI-8226 leukemia = tested on: RPMI-8226 leukemia
RXF 393 renal = tested on: RXF 393 renal
SF-268 CNS = tested on: SF-268 CNS
SF-295 CNS = tested on: SF-295 CNS
SF-539 CNS = tested on: SF-539 CNS
SK-MEL-2 melanoma = tested on: SK-MEL-2 melanoma
SK-MEL-28 melanoma = tested on: SK-MEL-28 melanoma
SK-MEL-5 melanoma = tested on: SK-MEL-5 melanoma
SK-OV-3 ovarian = tested on: SK-OV-3 ovarian
SN12K1 renal = tested on: SN12K1 renal
SNB-19 CNS = tested on: SNB-19 CNS
SNB-75 CNS = tested on: SNB-75 CNS
SNB-78 CNS = tested on: SNB-78 CNS
SW-620 colon = tested on: SW-620 colon
U251 CNS = tested on: U251 CNS
UACC-257 melanoma = tested on: UACC-257 melanoma
UACC-62 melanoma = tested on: UACC-62 melanoma
XF 498 CNS = tested on: XF 498 CNS

SMILES: COc1c(O)cc2c(c1OC)-c1ccc(OC)c(=O)cc1[C@@H](NC(C)=O)CC2
- GI50 (A498 renal): 162 nM and 122 nM and 37.5 nM
- TGI (A498 renal): 1830 nM and 1320 nM and 1140 nM
- TGI (A549 NSCLC): 300000 nM and 325000 nM and > 375000 nM
- GI50 (CAKI-1 renal): 112 nM and 81.5 nM
- GI50 (CCRF-CEM leukemia): 37.5 nM
- TGI (CCRF-CEM leukemia): 325000 nM and > 375000 nM
- GI50 (COLO 205 colon): 37.5 nM
- TGI (COLO 205 colon): 372 nM and 518 nM and 289 nM
- GI50 (DLD-1 colon): 96.9 nM and 158 nM
- TGI (DLD-1 colon): 300000 nM and 325000 nM
- GI50 (DMS 114 small cell lung): 37.5 nM
- GI50 (DMS 273 small cell lung): 37.5 nM
- TGI (DMS 273 small cell lung): 101 nM and 37.5 nM
- GI50 (EKVX NSCLC): 37.5 nM
- TGI (EKVX NSCLC): 325000 nM and > 375000 nM
- GI50 (HCC-2998 colon): 147 nM and 97.3 nM and 37.5 nM
- TGI (HCC-2998 colon): 300000 nM and 40100 nM and 52300 nM
- GI50 (HCT-116 colon): 37.5 nM
- GI50 (HCT-15 colon): 99.4 nM
- GI50 (HL-60(TB) leukemia): 37.5 nM
- GI50 (HOP-62 NSCLC): 37.5 nM
- TGI (HOP-62 NSCLC): 325000 nM and > 375000 nM
- GI50 (HOP-92 NSCLC): 37.5 nM
- GI50 (HT29 colon): 141 nM and 80.8 nM and 37.5 nM
- GI50 (IGROV1 ovarian): 125 nM and 211 nM and 37.5 nM
- TGI (IGROV1 ovarian): 300000 nM and 325000 nM and > 375000 nM
- GI50 (K-562 leukemia): 37.5 nM
- TGI (K-562 leukemia): 300000 nM and 325000 nM and > 375000 nM
- GI50 (KM12 colon): 37.5 nM
- TGI (KM12 colon): 325000 nM and > 375000 nM
- GI50 (LOX IMVI melanoma): 30 nM and 269 nM and 80.2 nM
- GI50 (M19-MEL melanoma): 203 nM and 32.5 nM and 37.5 nM
- TGI (M19-MEL melanoma): 300000 nM and 325000 nM and > 375000 nM
- TGI (MALME-3M melanoma): 325000 nM and > 375000 nM
- GI50 (MCF7 breast): 37.5 nM
- TGI (MCF7 breast): 300000 nM and 325000 nM and > 375000 nM
- GI50 (MOLT-4 leukemia): 225 nM and 32.5 nM and 37.5 nM
- TGI (NCI-H226 lung): 1170 nM
- GI50 (NCI-H23 lung): 202 nM and 92.7 nM and 37.5 nM
- TGI (NCI-H23 lung): 300000 nM and 325000 nM and 216000 nM
- TGI (NCI-H460 lung): 59000 nM
- GI50 (NCI-H522 lung): 34.2 nM and 37.5 nM
- TGI (NCI-H522 lung): 133 nM and 45.7 nM
- GI50 (NCI/ADR-RES ovarian): inactive
- TGI (NCI/ADR-RES ovarian): 64200 nM and 47700 nM and > 375000 nM
- GI50 (OVCAR-3 ovarian): 37.5 nM
- TGI (OVCAR-3 ovarian): 94.6 nM and 37.5 nM
- GI50 (OVCAR-5 ovarian): inactive
- TGI (OVCAR-5 ovarian): 300000 nM and 325000 nM and > 375000 nM
- GI50 (OVCAR-8 ovarian): 37.5 nM
- TGI (OVCAR-8 ovarian): 300000 nM and 325000 nM and > 375000 nM
- GI50 (P388 leukemia): 37.5 nM
- GI50 (P388/ADR leukemia): inactive
- TGI (P388/ADR leukemia): 45400 nM and 60300 nM
- GI50 (RPMI-8226 leukemia): 37.5 nM
- TGI (RPMI-8226 leukemia): 274 nM and 37.5 nM
- GI50 (RXF 393 renal): 108 nM and 37.5 nM
- GI50 (SF-268 CNS): 43.3 nM and 88.5 nM and 37.5 nM
- TGI (SF-268 CNS): 300000 nM and 325000 nM and > 375000 nM
- TGI (SF-295 CNS): 131 nM
- GI50 (SF-539 CNS): 37.2 nM and 59.8 nM and 37.5 nM
- TGI (SF-539 CNS): 306 nM and 264 nM and 37.5 nM
- GI50 (SK-MEL-2 melanoma): 58.8 nM and 32.5 nM and 37.5 nM
- GI50 (SK-MEL-28 melanoma): 37.5 nM
- TGI (SK-MEL-28 melanoma): 325000 nM and > 375000 nM
- GI50 (SK-MEL-5 melanoma): 37.5 nM
- TGI (SK-MEL-5 melanoma): 114000 nM and 88100 nM and > 375000 nM
- GI50 (SK-OV-3 ovarian): 104 nM and 302 nM
- TGI (SK-OV-3 ovarian): 137000 nM and 325000 nM
- GI50 (SN12K1 renal): 37.5 nM
- TGI (SN12K1 renal): 100 nM and 63.2 nM and 37.5 nM
- GI50 (SNB-19 CNS): 37.5 nM
- GI50 (SNB-75 CNS): inactive
- TGI (SNB-75 CNS): 300000 nM and 325000 nM
- GI50 (SNB-78 CNS): 37.5 nM
- TGI (SNB-78 CNS): 300000 nM and 325000 nM and > 375000 nM
- GI50 (SW-620 colon): 37.5 nM
- TGI (SW-620 colon): 300000 nM and 325000 nM and > 375000 nM
- GI50 (U251 CNS): 37.5 nM
- TGI (UACC-257 melanoma): 300000 nM and 104000 nM and > 375000 nM
- GI50 (UACC-62 melanoma): 56.6 nM and 106 nM and 37.5 nM
- TGI (UACC-62 melanoma): 300000 nM and 325000 nM and > 375000 nM
- TGI (XF 498 CNS): 165 nM and 37.5 nM
